This is an account of results in ChEMBL document CHEMBL4888484, “Replenishing the malaria drug discovery pipeline: Screening and hit evaluation of the MMV Hit Generation Library 1 (HGL1) against asexual blood stage Plasmodium falciparum ,using a nano luciferase reporter read-out” (2022).

Structures are written as SMILES. The whole screen tested about 150,000 compounds, of which about 540 (0.36%) showed an effect of 50% or more. Some of the results follow.

The test system of the assay is Plasmodium falciparum. The assay is described as follows: Primary screen in NF54 nanoGlo assay, in single point, at 2uM, 72h; a lower Z score goes with more inhibition. In kind it is functional, Erythrocyte. Particulars: timepoint 72 hour.
What is called % Inhibition is the drop in the measured response relative to a control, in per cent. Consider `O=C(c1ccccc1Cc1ccc(Cl)cc1)N1CCC[C@H]1CO`, for which the “% Inhibition” value is given as 4% and the Z score was -0.69.
Take `COCC[C@H]1CN(CCCCc2ccccc2)CCO1`: the “% Inhibition” value is on record as -11% and the Z score is reported as 1.17.
For `O=C(C1c2ccccc2Oc2ccccc21)N1CCCc2ccccc21`, the “% Inhibition” value stood at 4% and the Z score is given as -0.42.
For `Cc1c(CNC(=O)NC[C@H]2CCCN2Cc2ccccc2)cnn1C` the same measures were 2% and -0.26.
For `Cc1ccc(C(N)=O)c(-c2cccc(-c3cc[nH]n3)c2)n1` the same measures were 3% and -0.36.
For `Cc1ccc(C(=O)N2C[C@H](C(=O)O)[C@@H](c3ccc4c(c3)OCO4)C2)s1` the same measures were 6% and -1.06.
For the compound `COc1ccc(CN(C(=O)c2ccc(C)cc2)c2c(C)n(C)n(-c3ccccc3)c2=O)cc1`, the “% Inhibition” value was -4% and the Z score was found to be 0.49.
In the case of `CCn1cc(CNC(=O)[C@@H]2CC(Cc3ccc(F)cc3)=NO2)cn1`, the “% Inhibition” value turned out to be 0% and the Z score was 0.05.
For `Cc1ccccc1CCNC(=O)c1cn(C(c2ccccc2)c2ccccc2)nn1` the same measures were -3% and 0.3.
Turning to `Nc1nnc([C@@]23COC[C@@H]2CN(Cc2cc(F)cc(Cl)c2)C3)o1`, the “% Inhibition” value turned out to be 0% and the Z score is reported as 0.04.
As for `Cn1ccnc1CC[C@H]1CCCCN1Cc1cc(F)ccc1Cl`, the “% Inhibition” value is given as -13% and the Z score is given as 1.78.
`CCC(=O)N1CCC[C@H]1C(=O)NCc1ccc2[nH]cnc2c1`: the “% Inhibition” value is on record as -3% and the Z score turned out to be 0.62.
For `C[C@H]1CCCN(CCn2cc(-c3cnc(-c4cccs4)nc3)nn2)C1` the same measures were -23% and 2.8.
For `COc1ccc(-c2ccc(C(C)C)nn2)cn1` the same measures were -5% and 0.89.
As for `Cc1cc(C)cc(CCC(=O)NCCS(C)(=O)=O)c1`, the “% Inhibition” value was -12% and the Z score was found to be 2.34.
For `Cn1c(=O)c(-c2nc(-c3ccc(F)c(Br)c3)no2)c(O)c2ccccc21`, the “% Inhibition” value is listed as -2% and the Z score is on record as 0.26.
For `O=C(N[C@@H]1CN(Cc2cccc(Cl)c2)C[C@H]1CO)C1CCC1` the same measures were -4% and 0.61.
Regarding `Cc1noc(CN[C@@H](C)c2cccc(OC(C)C)c2)n1`, the “% Inhibition” value is -13% and the Z score came to 1.67.
For `O=C(Nc1ccccc1C(=O)N1CCN2C(=O)NC(=O)[C@@H]2C1)c1cccs1` the same measures were -3% and 0.33.
Regarding `O=C(CC1CCCC1)NC[C@@H]1C[C@H](F)CN1C(=O)CCn1ccccc1=O`, the “% Inhibition” value came out at 5% and the Z score was -1.02.
For `C[C@H](NCC(=O)N1CCOCC1)c1nc(Cc2ccccc2)no1` the same measures were -1% and 0.07.
`CCN(CCc1ccncc1)c1ccc(N)cn1`: the “% Inhibition” value was -14% and the Z score is reported as 1.85.
`O=C(NCCc1ccccc1)c1cnn2ncccc12`: the “% Inhibition” value is listed as -8% and the Z score came out at 1.12.
Turning to `Cc1cnc(NC(=O)Cc2csc(C)n2)c(Br)c1`, the “% Inhibition” value is given as -9% and the Z score is given as 0.9.
On to `Cc1nn(CC(=O)N2CCNC(=O)[C@@H]2c2cccc(F)c2)c(C)c1C`, for which the “% Inhibition” value is on record as -14% and the Z score worked out at 1.33.
For `CCOc1cncc(N2CC[C@H](OC)C(C)(C)C2)n1` the same measures were -15% and 1.9.
Take `CN1CCN(S(=O)(=O)NCCCC[C@H]2CCCO2)CC1`: the “% Inhibition” value is listed as -1% and the Z score is 0.23.
The like results for `C[C@@H](Cc1cccnc1)N1C(=O)N(C)C(C)(C)C1=O` were, in that order, -11% and 2.03.
Turning to `CC(C)Oc1cccc(NC(=O)C2CCN(S(=O)(=O)Cc3cccc(Cl)c3)CC2)c1`, the “% Inhibition” value is reported as -10% and the Z score worked out at 1.57.
For `Cc1cc(C)c2nccc(N3CCN(C4CCN(C)CC4)[C@@H](CCO)C3)c2c1` the same measures were 9% and -1.26.
`CCN=C(NCC)NC[C@@H](c1cccs1)N(C)C`: the “% Inhibition” value is recorded as -2% and the Z score is recorded as 0.19.
In the case of `COc1cc(F)ccc1S(=O)(=O)N[C@@H]1Cc2ccccc2[C@H]1N`, the “% Inhibition” value was -8% and the Z score was determined as 1.51.
The like results for `CCc1nnc(CNc2ccc(F)c(CC)c2)o1` were, in that order, 4% and -0.42.
The like results for `Cc1n[nH]cc1CN(C)C1CCN(c2ccc3c(c2)OCO3)CC1` were, in that order, -29% and 2.97.
The like results for `CNc1nc(NCC2C(C)(C)C2(C)C)ncc1F` were, in that order, -20% and 1.81.
Take `Cc1nnc(C2(c3ccc(Cl)cc3)CCOCC2)o1`: the “% Inhibition” value is listed as 3% and the Z score is given as -0.48.
Take `C(=Cc1ccco1)CNC[C@@H]1COc2ccccc2C1`: the “% Inhibition” value was -8% and the Z score came out at 1.32.
The like results for `COc1ccc(-c2ncnc3[nH]ccc23)c(OC)c1OC` were, in that order, -3% and 0.6.
For `CN(C)c1nc(N)nc(CN2CCCC2CC(O)c2ccccc2)n1` (configuration not stated) the same measures were -5% and 0.96.
On to `Cc1cc(N[C@@H]2COCC[C@@H]2OCCO)nc(C)c1C#N`, for which the “% Inhibition” value is -3% and the Z score was found to be 0.54.
For `N#Cc1ccc(Nc2ccc3c(c2)CC(=O)N3)nc1` the same measures were -11% and 1.18.
The like results for `CCCN(Cc1cc(NC(=O)C2CCC2)ccc1N(C)C)C(=O)C(C)(C)C` were, in that order, -15% and 2.12.
For `CC[C@H]1CN(C(=O)CN2CCCCc3ccc(OC)cc32)CCO1` the same measures were 3% and -0.25.
On to `CC(C)Oc1ccc(CN2C(=O)CC[C@@]2(C)C(=O)NCc2ccccc2)cc1`, for which the “% Inhibition” value was -8% and the Z score worked out at 0.88.
The like results for `CC(C)CC(=O)c1c[nH]c(C(=O)C(Cl)(Cl)Cl)c1` were, in that order, -3% and 0.38.
The like results for `Cc1cc(N2CCC(C(=O)NCc3ccccn3)CC2)n2nc(C)cc2n1` were, in that order, -5% and 0.9.
Take `COCCOc1ncccc1-c1noc([C@@H]2CCCN2c2ncccn2)n1`: the “% Inhibition” value is recorded as -6% and the Z score is 0.94.
With `CCCCc1nc(CN2CCC[C@H](N(C)CCc3ccccn3)C2)c[nH]1`, the “% Inhibition” value is listed as -12% and the Z score stood at 1.59.
For the compound `CCN1CN(CC(=O)N[C@@H](Cc2ccccc2)c2ccccc2)CC1=O`, the “% Inhibition” value is on record as -5% and the Z score was 0.88.
In the case of `CS(=O)(=O)N(Cc1nnc2n1CCOCC2)CC1CCC(F)(F)CC1`, the “% Inhibition” value is listed as -14% and the Z score is given as 2.14.
As for `CC(C)(C)OC(=O)N1CCN2C(=O)c3ccc(-c4ccccc4)cc3OCC[C@@H]3CC[C@H](O)[C@@H](CNC(=O)[C@@H]2C1)O3`, the “% Inhibition” value was 15% and the Z score is reported as -1.95.
As for `CN(C)c1cncc(NC(=O)C2CC3(CC3)C2)c1`, the “% Inhibition” value is listed as -6% and the Z score was 1.18.
Take `COc1cc(=O)n(-c2ccccc2)cc1C(=O)N1CCC(n2ccnn2)CC1`: the “% Inhibition” value was -16% and the Z score is 2.71.
In the case of `CCN1C(=O)Cc2cc(NC(=O)Cc3ccc(F)cc3)ccc21`, the “% Inhibition” value is given as -4% and the Z score is 0.5.
For `COc1ccc(CC(=O)N2CC[C@H](Oc3ncccn3)C2)cc1C`, the “% Inhibition” value was -6% and the Z score was 1.14.
As for `Cn1cccc(C(=O)N2CCC(n3ccnn3)CC2)c1=O`, the “% Inhibition” value was -16% and the Z score came to 2.06.
For `Cc1nc(NC2CCCCC2)c2c(C)noc2n1` the same measures were -8% and 0.95.
The like results for `CCC(=O)N(Cc1ccccc1)Cc1c(-c2ccccc2)noc1N1CCCC1` were, in that order, -12% and 1.55.
The like results for `Cc1noc(C)c1CN(C)C(=O)CCCc1ccccc1` were, in that order, -6% and 0.82.
`Cc1ccc(NC(=O)CN2CCN(C(=O)Nc3ccc(Br)cc3)CC2=O)c(C)c1`: the “% Inhibition” value is given as -1% and the Z score worked out at 0.1.
For `CCc1cnc(C)nc1N[C@@H](C)c1cccc(OC)c1` the same measures were -20% and 2.67.
With `Fc1ccc(OCCNC2CCN(CC(F)F)CC2)c(F)c1`, the “% Inhibition” value is -18% and the Z score worked out at 1.93.
As to `O=C1ON(c2ccccc2)[C@@H](c2ccc3c(c2)OCO3)N1c1ccc(Cl)cc1`, the “% Inhibition” value is on record as -5% and the Z score is on record as 0.74.
On to `Cc1nccn1C1CN(C(=O)C2CCCCC2)C1`, for which the “% Inhibition” value is -14% and the Z score worked out at 1.7.
Take `Brc1ccc(CN2CCOC(C3CCCO3)C2)o1` (configuration not stated): the “% Inhibition” value is -15% and the Z score is on record as 2.02.
For `Cc1ccc(N2C[C@@H](C(=O)N3CCC4(CC3)NC(=O)NC4=O)CC2=O)cc1`, the “% Inhibition” value stood at 7% and the Z score was -0.94.
On to `Cc1cccc(NC(=O)N2CCN(c3nc(-c4cccc(F)c4)nc(C)c3Cc3ccccc3)CC2)c1`, for which the “% Inhibition” value is recorded as 10% and the Z score is -1.24.
For `C[C@@H](CC(=O)Nc1cnccn1)c1ccc(F)cc1F` the same measures were -19% and 1.92.
As for `CCN1C(C(=O)N2CCOCC2)=C(OCc2ccccc2)c2ccccc2S1(=O)=O`, the “% Inhibition” value is reported as 6% and the Z score is -0.7.
The like results for `Cn1cc([C@@H]2CCCN2CC2=Nc3ccccc3S(=O)(=O)N2)cn1` were, in that order, -18% and 2.99.
On to `C[C@H]1CCN(Cc2coc3ccccc23)CCS1(=O)=O`, for which the “% Inhibition” value is 7% and the Z score is given as -0.7.
Regarding `CC1=NN(Cc2ccccc2)C(=O)[C@H]1C(=O)Nc1ccccn1`, the “% Inhibition” value is reported as -19% and the Z score amounted to 2.42.
For `Cc1coc(-c2ccc(C)c(NC(=O)NCc3cc(C)on3)c2)n1` the same measures were -11% and 1.15.
For `CCc1ccc(C(=O)Nc2nc(C)nn2C)o1` the same measures were 3% and -0.59.
The like results for `CCNC(=O)Nc1nnc(-c2ccco2)o1` were, in that order, 7% and -0.75.
With `CCn1cc(S(=O)(=O)N2CC3CN(c4ccccc4)CC3C2)cn1` (configuration not stated), the “% Inhibition” value is recorded as -2% and the Z score was 0.36.
For `COc1cnc(NC(=O)c2occc2CN2c3ccccc3C[C@@H]2C)cn1` the same measures were -13% and 1.5.
The like results for `COc1ccccc1C1(CNc2ncnc3nc[nH]c23)CCOCC1` were, in that order, -2% and 0.39.
The like results for `CCCS(=O)(=O)N1CCC(F)(F)[C@@H](COCc2cccnc2)C1` were, in that order, -3% and 0.58.
In the case of `CC1=NS(=O)(=O)N(C)C=C1C(=O)OCc1c(F)cccc1Cl`, the “% Inhibition” value came out at 2% and the Z score is given as -0.37.
For `CC(C)N1CCC[C@H](C(=O)NCCc2noc(C3CCCC3)n2)C1` the same measures were -2% and 0.36.
With `CCN(CC)c1cc(CCC(=O)NC2CCCC2)ccn1`, the “% Inhibition” value was found to be 0% and the Z score was 0.08.
The like results for `CCn1nc(CO)c2c1CCN(C(=O)c1ccc3[nH]nnc3c1)C2` were, in that order, -15% and 1.43.
For `Cc1nc[nH]c1CN(Cc1nccn1C)C1CC1` the same measures were -11% and 1.4.
The like results for `CC1CC(C)CN(S(=O)(=O)Cl)C1` (configuration not stated) were, in that order, -13% and 1.49.
Take `Cc1nc(-c2ccccc2)sc1[C@H](C)NC(=O)C1(C)CCOCC1`: the “% Inhibition” value was -1% and the Z score is listed as 0.06.
